# The supplement of paper PMC8728848
# Some of the results follow.
# How the values were obtained:
# Assay in all cases: glycan array binding signal (z-score within array); higher = stronger binding
# Conditions in all cases: glycan notation: IUPAC condensed, linker removed
# Neu5Ac(a2-8)Neu5Ac = target: Neu5Ac(a2-8)Neu5Ac
# Method in brief: (§1)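 Arrays were curated from the Consortium for Functional Glycomics database, 3228 in total, and kept only where the protein sequence was available. Binding is expressed as a within-array Z-score. This score was averaged across arrays of the same protein sequence at different concentrations or buffers and across linkers, and negative values can be read as non-binding.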
# [1] = target: Neu5Ac(a2-8)Neu5Ac(a2-3)Gal(b1-3)GalNAc(b1-4)[Neu5Ac(a2-3)]Gal(b1-4)Glc
# Method in brief: as §1
# [2] = target: Neu5Ac(a2-8)Neu5Ac(a2-3)Gal(b1-3)GalNAc(b1-4)[Neu5Ac(a2-8)Neu5Ac(a2-3)]Gal(b1-4)Glc
# Method in brief: as §1
# [3] = target: Neu5Ac(a2-8)Neu5Ac(a2-3)Gal(b1-4)Glc
# Method in brief: as §1
# [4] = target: Neu5Ac(a2-8)Neu5Ac(a2-3)Gal(b1-4)GlcNAc
# Method in brief: as §1
# [5] = target: Neu5Ac(a2-8)Neu5Ac(a2-3)[Gal(b1-3)GalNAc(b1-4)]Gal(b1-4)Glc
# Method in brief: as §1
# [6] = target: Neu5Ac(a2-8)Neu5Ac(a2-3)[GalNAc(b1-4)]Gal(b1-4)Glc
# Method in brief: as §1
# [7] = target: Neu5Ac(a2-8)Neu5Ac(a2-8)Neu5Ac
# Method in brief: as §1
# [8] = target: Neu5Ac(a2-8)Neu5Ac(a2-8)Neu5Ac(a2-3)Gal(b1-4)Glc
# Method in brief: as §1
# [9] = target: Neu5Ac(a2-8)Neu5Ac(a2-8)Neu5Ac(a2-3)[Gal(b1-3)GalNAc(b1-4)]Gal(b1-4)Glc
# Method in brief: as §1
# [10] = target: Neu5Ac(a2-8)Neu5Ac(a2-8)Neu5Ac(a2-3)[GalNAc(b1-4)]Gal(b1-4)Glc
# Method in brief: as §1
# [11] = target: Neu5Ac(a2-8)Neu5Ac(a2-8)Neu5Ac(a2-8)Neu5Ac(a2-3)[GalNAc(b1-4)]Gal(b1-4)Glc
# Method in brief: as §1
# [12] = target: Neu5Ac(a2-8)Neu5Gc(a2-3)Gal(b1-4)GlcNAc
# Method in brief: as §1
# [13] = target: Neu5Ac(b2-6)Gal(b1-4)GlcNAc
# Method in brief: as §1
# Neu5Ac(b2-6)GalNAc = target: Neu5Ac(b2-6)GalNAc
# Method in brief: as §1
# [14] = target: Neu5Ac9Ac(a2-3)Gal(b1-3)GlcNAc
# Method in brief: as §1
# [15] = target: Neu5Ac9Ac(a2-3)Gal(b1-4)GlcNAc
# Method in brief: as §1
# [16] = target: Neu5Ac9Ac(a2-6)Gal(b1-4)GlcNAc
# Method in brief: as §1
# [17] = target: Neu5Gc(a2-3)Gal(b1-3)GlcNAc
# Method in brief: as §1
# [18] = target: Neu5Gc(a2-3)Gal(b1-3)[Fuc(a1-4)]GlcNAc
# Method in brief: as §1
# Neu5Gc(a2-3)Gal(b1-4)Glc = target: Neu5Gc(a2-3)Gal(b1-4)Glc
# Method in brief: as §1
# [19] = target: Neu5Gc(a2-3)Gal(b1-4)GlcNAc
# Method in brief: as §1
# [20] = target: Neu5Gc(a2-3)Gal(b1-4)GlcNAc(b1-3)Gal(b1-4)GlcNAc(b1-2)Man(a1-3)[Neu5Gc(a2-3)Gal(b1-4)GlcNAc(b1-3)Gal(b1-4)GlcNAc(b1-2)Man(a1-6)]Man(b1-4)GlcNAc(b1-4)GlcNAc
# Method in brief: as §1
# [21] = target: Neu5Gc(a2-3)Gal(b1-4)[Fuc(a1-3)]GlcNAc
# Method in brief: as §1
# [22] = target: Neu5Gc(a2-3)Gal(b1-4)[Fuc(a1-4)]GlcNAc
# Method in brief: as §1
# [23] = target: Neu5Gc(a2-6)Gal(b1-4)GlcNAc
# Method in brief: as §1
# Neu5Gc(a2-6)GalNAc = target: Neu5Gc(a2-6)GalNAc
# Method in brief: as §1
# [24] = target: Neu5Gc(a2-8)Neu5Ac(a2-3)Gal(b1-4)GlcNAc
# Method in brief: as §1
# [25] = target: Neu5Gc(a2-8)Neu5Gc(a2-3)Gal(b1-4)GlcNAc
# Method in brief: as §1
# [26] = target: Neu5Gc(a2-8)Neu5Gc(a2-3)Gal(b1-4)GlcNAc(b1-3)Gal(b1-4)GlcNAc
# Method in brief: as §1
# [27] = target: Neu5Gc(a2-8)Neu5Gc(a2-6)Gal(b1-4)GlcNAc
# Method in brief: as §1
# [28] = target: Neu5Gc(b2-6)Gal(b1-4)GlcNAc
# Method in brief: as §1
binder,measurement,setting,value
"Epa7 (Candida glabrata), Q6DTM6_CANGB (protein) MGSSHHHHHHSSGLVPRGSHMKDDYSSFLSNNNLGWTDPTEFPLGCSPNVTTPKNGLSMELYSYDLRKNGSYPCWDAAYLDPNYPRTGYKSHRLLAKVDGVTGNINFYYHATKGCTPEIDHLPASYNYPKPLTMTNFTMLLYGYFKPKVTGYHTFTISADDLLFVNFGAGNAFDCCKRESSADDFGNYQAYAVWGSQTAKDDLTVHLDAGLYYPIRIFFNNREYDAELSLTLKTESDSNPVIDFSDYFYSFDDTKDGCPGLVSYDTS",glycan array binding signal (z-score),Neu5Ac(a2-8)Neu5Ac,-0.248
same,glycan array binding signal (z-score),[1],-0.079
same,glycan array binding signal (z-score),[2],-0.167
same,glycan array binding signal (z-score),[3],-0.257
same,glycan array binding signal (z-score),[4],-0.226
same,glycan array binding signal (z-score),[5],2.79
same,glycan array binding signal (z-score),[6],-0.254
same,glycan array binding signal (z-score),[7],-0.26
same,glycan array binding signal (z-score),[8],-0.259
same,glycan array binding signal (z-score),[9],0.014
same,glycan array binding signal (z-score),[10],-0.258
same,glycan array binding signal (z-score),[11],-0.261
same,glycan array binding signal (z-score),[12],-0.241
same,glycan array binding signal (z-score),[13],-0.236
same,glycan array binding signal (z-score),Neu5Ac(b2-6)GalNAc,-0.258
same,glycan array binding signal (z-score),[14],-0.233
same,glycan array binding signal (z-score),[15],-0.239
same,glycan array binding signal (z-score),[16],-0.255
same,glycan array binding signal (z-score),[17],-0.251
same,glycan array binding signal (z-score),[18],-0.15
same,glycan array binding signal (z-score),Neu5Gc(a2-3)Gal(b1-4)Glc,-0.256
same,glycan array binding signal (z-score),[19],-0.262
same,glycan array binding signal (z-score),[20],-0.231
same,glycan array binding signal (z-score),[21],-0.228
same,glycan array binding signal (z-score),[22],-0.275
same,glycan array binding signal (z-score),[23],-0.253
same,glycan array binding signal (z-score),Neu5Gc(a2-6)GalNAc,-0.256
same,glycan array binding signal (z-score),[24],-0.241
same,glycan array binding signal (z-score),[25],-0.237
same,glycan array binding signal (z-score),[26],-0.243
same,glycan array binding signal (z-score),[27],-0.222
same,glycan array binding signal (z-score),[28],-0.224
